Measurements from the supplement of paper PMC8728848.
The other results are listed elsewhere or left out.

Experiments:
Assay in all cases: glycan array binding signal (z-score within array); higher = stronger binding
Details in all cases: glycan notation: IUPAC condensed, linker removed
[1] = molecular target: Neu5Ac(a2-6)Gal(b1-4)GlcNAc(b1-2)Man(a1-3)[Man(a1-6)]Man(b1-4)GlcNAc(b1-4)GlcNAc
Outline: (§1)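 Arrays were curated from the Consortium for Functional Glycomics database, 3228 in total, and kept only where the protein sequence was available. Binding is expressed as a within-array Z-score. This score was averaged across arrays of the same protein sequence at different concentrations or buffers and across linkers, and negative values can be read as non-binding.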

[2] = molecular target: Neu5Ac(a2-6)Gal(b1-4)GlcNAc(b1-2)Man(a1-3)[Neu5Ac(a2-3)Gal(b1-4)GlcNAc(b1-2)Man(a1-6)]Man(b1-4)GlcNAc(b1-4)GlcNAc
Outline: as §1

[3] = molecular target: Neu5Ac(a2-6)Gal(b1-4)GlcNAc(b1-2)Man(a1-3)[Neu5Ac(a2-6)Gal(b1-4)GlcNAc(b1-2)Man(a1-6)]Man(b1-4)GlcNAc(b1-4)GlcNAc
Outline: as §1

[4] = molecular target: Neu5Ac(a2-6)Gal(b1-4)GlcNAc(b1-2)Man(a1-3)[Neu5Ac(a2-6)Gal(b1-4)GlcNAc(b1-2)Man(a1-6)]Man(b1-4)GlcNAc(b1-4)[Fuc(a1-6)]GlcNAc
Outline: as §1

[5] = molecular target: Neu5Ac(a2-6)Gal(b1-4)GlcNAc(b1-2)Man(a1-6)Man(b1-4)GlcNAc(b1-4)GlcNAc
Outline: as §1

[6] = molecular target: Neu5Ac(a2-6)Gal(b1-4)GlcNAc(b1-2)Man(a1-6)[Gal(b1-4)GlcNAc(b1-2)Man(a1-3)]Man(b1-4)GlcNAc(b1-4)GlcNAc
Outline: as §1

[7] = molecular target: Neu5Ac(a2-6)Gal(b1-4)GlcNAc(b1-2)Man(a1-6)[GlcNAc(b1-2)Man(a1-3)]Man(b1-4)GlcNAc(b1-4)GlcNAc
Outline: as §1

[8] = molecular target: Neu5Ac(a2-6)Gal(b1-4)GlcNAc(b1-2)Man(a1-6)[Man(a1-3)]Man(b1-4)GlcNAc(b1-4)GlcNAc
Outline: as §1

[9] = molecular target: Neu5Ac(a2-6)Gal(b1-4)GlcNAc(b1-2)[Neu5Ac(a2-6)Gal(b1-4)GlcNAc(b1-4)]Man(a1-3)[GlcNAc(b1-4)][Neu5Ac(a2-6)Gal(b1-4)GlcNAc(b1-2)[Neu5Ac(a2-6)Gal(b1-4)GlcNAc(b1-6)]Man(a1-6)]Man(b1-4)GlcNAc(b1-4)GlcNAc
Outline: as §1

[10] = molecular target: Neu5Ac(a2-6)Gal(b1-4)GlcNAc(b1-2)[Neu5Ac(a2-6)Gal(b1-4)GlcNAc(b1-4)]Man(a1-3)[GlcNAc(b1-4)][Neu5Ac(a2-6)Gal(b1-4)GlcNAc(b1-4)Man(a1-6)]Man(b1-4)GlcNAc(b1-4)GlcNAc
Outline: as §1

[11] = molecular target: Neu5Ac(a2-6)Gal(b1-4)GlcNAc(b1-2)[Neu5Ac(a2-6)Gal(b1-4)GlcNAc(b1-6)]Man(a1-6)[Neu5Ac(a2-6)Gal(b1-4)GlcNAc(b1-2)Man(a1-3)][GlcNAc(b1-4)]Man(b1-4)GlcNAc(b1-4)GlcNAc
Outline: as §1

[12] = molecular target: Neu5Ac(a2-6)Gal(b1-4)GlcNAc(b1-3)Gal(b1-3)GlcNAc
Outline: as §1

[13] = molecular target: Neu5Ac(a2-6)Gal(b1-4)GlcNAc(b1-3)Gal(b1-4)GlcNAc
Outline: as §1

[14] = molecular target: Neu5Ac(a2-6)Gal(b1-4)GlcNAc(b1-3)Gal(b1-4)GlcNAc(b1-2)Man(a1-3)[Neu5Ac(a2-6)Gal(b1-4)GlcNAc(b1-3)Gal(b1-4)GlcNAc(b1-2)Man(a1-6)]GalNAc
Outline: as §1

[15] = molecular target: Neu5Ac(a2-6)Gal(b1-4)GlcNAc(b1-3)Gal(b1-4)GlcNAc(b1-3)Gal(b1-4)GlcNAc
Outline: as §1

[16] = molecular target: Neu5Ac(a2-6)Gal(b1-4)GlcNAc(b1-3)Gal(b1-4)GlcNAc(b1-3)Gal(b1-4)GlcNAc(b1-2)Man(a1-3)[Neu5Ac(a2-6)Gal(b1-4)GlcNAc(b1-3)Gal(b1-4)GlcNAc(b1-3)Gal(b1-4)GlcNAc(b1-2)Man(a1-6)]GalNAc
Outline: as §1

[17] = molecular target: Neu5Ac(a2-6)Gal(b1-4)GlcNAc(b1-3)Gal(b1-4)GlcNAc(b1-3)GalNAc
Outline: as §1

[18] = molecular target: Neu5Ac(a2-6)Gal(b1-4)GlcNAc(b1-3)Gal(b1-4)GlcNAc(b1-3)[Neu5Ac(a2-6)Gal(b1-4)GlcNAc(b1-3)Gal(b1-4)GlcNAc(b1-6)]GalNAc
Outline: as §1

[19] = molecular target: Neu5Ac(a2-6)Gal(b1-4)GlcNAc(b1-3)Gal(b1-4)GlcNAc(b1-6)[Gal(b1-3)]GalNAc
Outline: as §1

[20] = molecular target: Neu5Ac(a2-6)Gal(b1-4)GlcNAc(b1-3)Gal(b1-4)[Fuc(a1-3)]GlcNAc(b1-3)Gal(b1-4)[Fuc(a1-3)]GlcNAc
Outline: as §1

[21] = molecular target: Neu5Ac(a2-6)Gal(b1-4)GlcNAc(b1-3)GalNAc
Outline: as §1

[22] = molecular target: Neu5Ac(a2-6)Gal(b1-4)GlcNAc(b1-3)[Neu5Ac(a2-6)Gal(b1-4)GlcNAc(b1-6)]GalNAc
Outline: as §1

[23] = molecular target: Neu5Ac(a2-6)Gal(b1-4)GlcNAc(b1-6)GalNAc
Outline: as §1

[24] = molecular target: Neu5Ac(a2-6)Gal(b1-4)GlcNAc(b1-6)[Gal(b1-3)GlcNAc(b1-3)]Gal(b1-4)Glc
Outline: as §1

[25] = molecular target: Neu5Ac(a2-6)Gal(b1-4)GlcNAc(b1-6)[Gal(b1-3)]GalNAc
Outline: as §1

[26] = molecular target: Neu5Ac(a2-6)Gal(b1-4)GlcNAc6S
Outline: as §1

Neu5Ac(a2-6)GalNAc = molecular target: Neu5Ac(a2-6)GalNAc
Outline: as §1

[27] = molecular target: Neu5Ac(a2-6)GalNAc(b1-4)GlcNAc
Outline: as §1

[28] = molecular target: Neu5Ac(a2-6)GalNAc(b1-4)GlcNAc6S
Outline: as §1

[29] = molecular target: Neu5Ac(a2-6)GlcNAc(b1-4)GlcNAc
Outline: as §1

[30] = molecular target: Neu5Ac(a2-6)GlcNAc(b1-4)GlcNAc(b1-4)GlcNAc
Outline: as §1

B1: PX14379A-bvu-539-28-539 (Bacteroides vulgatus) (protein)
chain: EPYSEIIEEDYVPTEADEIALLATTYSQLRFVMDWYGLFDLQEESGDVIVTPTRPNGWDDGGTYKQMHKHTWDNQQGQPQSIWDYCYKGIANANKILKRADEGFFTEESKPKVVAEVKGVRALWYSILCDTHGNIPIQTSFSEEVPVQSTRKQVFDFIINELKEVMPNLPTEVNKSTYGRLTQWGAKCLMARMYLNAGVYTGTPMWNECLEQCNDIINSGLFSLETNYTDIFKTENSGCVETIFAIPYDEVYNEGDNNGPVFGAHMKFLSSNSRKVFNMQTTPWGGSAANPQFINSYDPDDMRLKYTWLQGDQYSPDGVLITTFPNKLPSIYKTDTDDGYRVGKYEIKVGAKSLLSNDFPYFRYTEVLLMKAECLLRLGQNETEAAHIVSQIRERAFRESAHPEKATVDAAWLKGDTHINYGTLDEKGQIDDAGNTEVVELGGLYDEWGWEFAAEARRRTDMIRFGTYQKKSWFNHTPTANDLNGNSILFPIHLDHLNTNPNLQQNPGYAGK
[1]
  glycan array binding signal (z-score): -0.202
[2]
  glycan array binding signal (z-score): -0.144
[3]
  glycan array binding signal (z-score): -0.123
[4]
  glycan array binding signal (z-score): -0.29
[5]
  glycan array binding signal (z-score): -0.483
[6]
  glycan array binding signal (z-score): -0.47
[7]
  glycan array binding signal (z-score): -0.431
[8]
  glycan array binding signal (z-score): -0.299
[9]
  glycan array binding signal (z-score): -0.137
[10]
  glycan array binding signal (z-score): -0.196
[11]
  glycan array binding signal (z-score): -0.47
[12]
  glycan array binding signal (z-score): -0.087
[13]
  glycan array binding signal (z-score): -0.123
[14]
  glycan array binding signal (z-score): -0.103
[15]
  glycan array binding signal (z-score): -0.533
[16]
  glycan array binding signal (z-score): 0.07
[17]
  glycan array binding signal (z-score): -0.208
[18]
  glycan array binding signal (z-score): -0.191
[19]
  glycan array binding signal (z-score): -0.111
[20]
  glycan array binding signal (z-score): -0.295
[21]
  glycan array binding signal (z-score): -0.204
[22]
  glycan array binding signal (z-score): -0.287
[23]
  glycan array binding signal (z-score): -0.176
[24]
  glycan array binding signal (z-score): -0.344
[25]
  glycan array binding signal (z-score): -0.4
[26]
  glycan array binding signal (z-score): -0.432
Neu5Ac(a2-6)GalNAc
  glycan array binding signal (z-score): -0.471
[27]
  glycan array binding signal (z-score): -0.211
[28]
  glycan array binding signal (z-score): -0.014
[29]
  glycan array binding signal (z-score): -0.56
[30]
  glycan array binding signal (z-score): -0.16
